# Test results reported in the supplement of paper PMC8728848.
# This is one part of the list.
# B1: MpL2 (Macrolepiota procera) (protein)
# chain: MSTQVSSGQTYKITNVKAGTVIRLSGEDNKSIIGYPYHSGKNQQWTFNWTGKAWTLRSASSGSYLGIEGTPADGTRLVAVNDPFEWHIWRDEANENAFRIFVPFTNYNLDLSGYGDTTPGTPVQLWWTWEGLHQTWTIDRP
# What was measured:
# Test in all cases: glycan array binding signal (z-score within array); higher = stronger binding
# Settings in all cases: glycan notation: IUPAC condensed, linker removed; mutation: D22R
# Gal(a1-6)Glc = molecular target: Gal(a1-6)Glc
# Outline: (§1)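 Negative Z-scores can be read as non-binding. The Z-score is calculated within each array and then averaged across arrays of one protein sequence at different concentrations or buffers and across linkers. Arrays, 3228 in all, were curated from the Consortium for Functional Glycomics database and kept only where the protein sequence was available.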
# Gal(b1-2)Gal = molecular target: Gal(b1-2)Gal
# Outline: as §1
# Gal(b1-3)Gal = molecular target: Gal(b1-3)Gal
# Outline: as §1
# Gal(b1-3)Gal(b1-4)GlcNAc = molecular target: Gal(b1-3)Gal(b1-4)GlcNAc
# Outline: as §1
# Gal(b1-3)GalNAc = molecular target: Gal(b1-3)GalNAc
# Outline: as §1
# [1] = molecular target: Gal(b1-3)GalNAc(a1-3)[Fuc(a1-2)]Gal(b1-4)Glc
# Outline: as §1
# [2] = molecular target: Gal(b1-3)GalNAc(a1-3)[Fuc(a1-2)]Gal(b1-4)GlcNAc
# Outline: as §1
# Gal(b1-3)GalNAc(b1-3)Gal = molecular target: Gal(b1-3)GalNAc(b1-3)Gal
# Outline: as §1
# [3] = molecular target: Gal(b1-3)GalNAc(b1-3)Gal(a1-4)Gal(b1-4)Glc
# Outline: as §1
# [4] = molecular target: Gal(b1-3)GalNAc(b1-4)Gal(b1-4)Glc
# Outline: as §1
# [5] = molecular target: Gal(b1-3)GalNAc(b1-4)[Neu5Ac(a2-3)]Gal(b1-4)Glc
# Outline: as §1
# Gal(b1-3)GlcNAc = molecular target: Gal(b1-3)GlcNAc
# Outline: as §1
# [6] = molecular target: Gal(b1-3)GlcNAc(a1-3)Gal(b1-4)GlcNAc
# Outline: as §1
# [7] = molecular target: Gal(b1-3)GlcNAc(a1-6)Gal(b1-4)GlcNAc
# Outline: as §1
# Gal(b1-3)GlcNAc(b1-2)Man = molecular target: Gal(b1-3)GlcNAc(b1-2)Man
# Outline: as §1
# [8] = molecular target: Gal(b1-3)GlcNAc(b1-2)Man(a1-3)[Gal(b1-3)GlcNAc(b1-2)Man(a1-6)]Man(b1-4)GlcNAc(b1-4)GlcNAc
# Outline: as §1
# [9] = molecular target: Gal(b1-3)GlcNAc(b1-2)Man(a1-3)[Gal(b1-3)GlcNAc(b1-2)Man(a1-6)]Man(b1-4)GlcNAc(b1-4)[Fuc(a1-6)]GlcNAc
# Outline: as §1
# [10] = molecular target: Gal(b1-3)GlcNAc(b1-2)Man(a1-3)[GlcNAc(b1-4)][Gal(b1-3)GlcNAc(b1-2)Man(a1-6)]Man(b1-4)GlcNAc(b1-4)GlcNAc
# Outline: as §1
# [11] = molecular target: Gal(b1-3)GlcNAc(b1-2)[Gal(b1-3)GlcNAc(b1-6)]Man(a1-6)[Gal(b1-3)GlcNAc(b1-2)Man(a1-3)]Man(b1-4)GlcNAc(b1-4)GlcNAc
# Outline: as §1
# [12] = molecular target: Gal(b1-3)GlcNAc(b1-3)Gal(b1-3)GlcNAc
# Outline: as §1
# [13] = molecular target: Gal(b1-3)GlcNAc(b1-3)Gal(b1-4)Glc
# Outline: as §1
# [14] = molecular target: Gal(b1-3)GlcNAc(b1-3)Gal(b1-4)GlcNAc
# Outline: as §1
# [15] = molecular target: Gal(b1-3)GlcNAc(b1-3)Gal(b1-4)GlcNAc(b1-2)Man(a1-3)[Gal(b1-3)GlcNAc(b1-3)Gal(b1-4)GlcNAc(b1-2)Man(a1-6)]Man(b1-4)GlcNAc(b1-4)GlcNAc
# Outline: as §1
# [16] = molecular target: Gal(b1-3)GlcNAc(b1-3)Gal(b1-4)GlcNAc(b1-2)[Gal(b1-3)GlcNAc(b1-3)Gal(b1-4)GlcNAc(b1-6)]Man(a1-6)[Gal(b1-3)GlcNAc(b1-3)Gal(b1-4)GlcNAc(b1-2)Man(a1-3)]Man(b1-4)GlcNAc(b1-4)[Fuc(a1-6)]GlcNAc
# Outline: as §1
# [17] = molecular target: Gal(b1-3)GlcNAc(b1-3)Gal(b1-4)GlcNAc(b1-3)Gal(b1-4)GlcNAc(b1-2)[Gal(b1-3)GlcNAc(b1-3)Gal(b1-4)GlcNAc(b1-3)Gal(b1-4)GlcNAc(b1-6)]Man(a1-6)[Gal(b1-3)GlcNAc(b1-3)Gal(b1-4)GlcNAc(b1-3)Gal(b1-4)GlcNAc(b1-2)Man(a1-3)]Man(b1-4)GlcNAc(b1-4)[Fuc(a1-6)]GlcNAc
# Outline: as §1
# [18] = molecular target: Gal(b1-3)GlcNAc(b1-3)Gal(b1-4)GlcNAc(b1-6)[Gal(b1-3)GlcNAc(b1-3)]Gal(b1-4)Glc
# Outline: as §1
# [19] = molecular target: Gal(b1-3)GlcNAc(b1-3)Gal(b1-4)[Fuc(a1-3)]GlcNAc
# Outline: as §1
# [20] = molecular target: Gal(b1-3)GlcNAc(b1-3)Gal(b1-4)[Fuc(a1-3)]GlcNAc(b1-6)[Gal(b1-3)GlcNAc(b1-3)]Gal(b1-4)Glc
# Outline: as §1
# [21] = molecular target: Gal(b1-3)GlcNAc(b1-3)GalNAc
# Outline: as §1
# [22] = molecular target: Gal(b1-3)GlcNAc(b1-6)Gal(b1-4)GlcNAc
# Outline: as §1
# [23] = molecular target: Gal(b1-3)GlcNAc(b1-6)GalNAc
# Outline: as §1
# [24] = molecular target: Gal(b1-3)GlcNAc(b1-6)[Gal(b1-3)]GalNAc
# Outline: as §1
# Gal(b1-3)GlcNAc6S = molecular target: Gal(b1-3)GlcNAc6S
# Outline: as §1
# [25] = molecular target: Gal(b1-3)[Fuc(a1-4)]GlcNAc
# Outline: as §1
# [26] = molecular target: Gal(b1-3)[Fuc(a1-4)]GlcNAc(b1-2)Man
# Outline: as §1
# [27] = molecular target: Gal(b1-3)[Fuc(a1-4)]GlcNAc(b1-2)Man(a1-3)[Gal(b1-3)[Fuc(a1-4)]GlcNAc(b1-2)Man(a1-6)]Man(b1-4)GlcNAc(b1-4)[Fuc(a1-6)]GlcNAc
# Outline: as §1
# [28] = molecular target: Gal(b1-3)[Fuc(a1-4)]GlcNAc(b1-3)Gal(b1-3)[Fuc(a1-4)]GlcNAc
# Outline: as §1
# [29] = molecular target: Gal(b1-3)[Fuc(a1-4)]GlcNAc(b1-3)Gal(b1-4)[Fuc(a1-3)]GlcNAc
# Outline: as §1
# [30] = molecular target: Gal(b1-3)[Fuc(a1-4)]GlcNAc(b1-6)GalNAc
# Outline: as §1
# [31] = molecular target: Gal(b1-3)[GlcNAc(b1-6)]GalNAc
# Outline: as §1
# [32] = molecular target: Gal(b1-3)[Neu5Ac(a2-6)]GalNAc
# Outline: as §1
# [33] = molecular target: Gal(b1-3)[Neu5Ac(a2-6)]GlcNAc(b1-4)Gal(b1-4)Glc
# Outline: as §1
# [34] = molecular target: Gal(b1-3)[Neu5Ac(b2-6)]GalNAc
# Outline: as §1
# Gal(b1-4)Gal = molecular target: Gal(b1-4)Gal
# Outline: as §1
# [35] = molecular target: Gal(b1-4)GalNAc(a1-3)[Fuc(a1-2)]Gal(b1-4)GlcNAc
# Outline: as §1
binder,measurement,setting,value
B1,glycan array binding signal (z-score),Gal(a1-6)Glc,-0.101
same,glycan array binding signal (z-score),Gal(b1-2)Gal,0.037
same,glycan array binding signal (z-score),Gal(b1-3)Gal,0.078
same,glycan array binding signal (z-score),Gal(b1-3)Gal(b1-4)GlcNAc,-0.195
same,glycan array binding signal (z-score),Gal(b1-3)GalNAc,-0.346
same,glycan array binding signal (z-score),[1],0.271
same,glycan array binding signal (z-score),[2],-0.921
same,glycan array binding signal (z-score),Gal(b1-3)GalNAc(b1-3)Gal,-0.315
same,glycan array binding signal (z-score),[3],0.012
same,glycan array binding signal (z-score),[4],-0.36
same,glycan array binding signal (z-score),[5],-0.265
same,glycan array binding signal (z-score),Gal(b1-3)GlcNAc,-0.236
same,glycan array binding signal (z-score),[6],0.436
same,glycan array binding signal (z-score),[7],-0.177
same,glycan array binding signal (z-score),Gal(b1-3)GlcNAc(b1-2)Man,0.189
same,glycan array binding signal (z-score),[8],1.15
same,glycan array binding signal (z-score),[9],-0.234
same,glycan array binding signal (z-score),[10],0.088
same,glycan array binding signal (z-score),[11],1.01
same,glycan array binding signal (z-score),[12],-0.167
same,glycan array binding signal (z-score),[13],-0.273
same,glycan array binding signal (z-score),[14],-0.301
same,glycan array binding signal (z-score),[15],1.18
same,glycan array binding signal (z-score),[16],10.4
same,glycan array binding signal (z-score),[17],10.8
same,glycan array binding signal (z-score),[18],0.452
same,glycan array binding signal (z-score),[19],-0.17
same,glycan array binding signal (z-score),[20],-0.28
same,glycan array binding signal (z-score),[21],-0.136
same,glycan array binding signal (z-score),[22],-0.228
same,glycan array binding signal (z-score),[23],0.107
same,glycan array binding signal (z-score),[24],1.13
same,glycan array binding signal (z-score),Gal(b1-3)GlcNAc6S,-0.366
same,glycan array binding signal (z-score),[25],-0.377
same,glycan array binding signal (z-score),[26],0.169
same,glycan array binding signal (z-score),[27],0.334
same,glycan array binding signal (z-score),[28],-0.2
same,glycan array binding signal (z-score),[29],-0.392
same,glycan array binding signal (z-score),[30],1.05
same,glycan array binding signal (z-score),[31],-0.149
same,glycan array binding signal (z-score),[32],-0.787
same,glycan array binding signal (z-score),[33],-0.326
same,glycan array binding signal (z-score),[34],-0.168
same,glycan array binding signal (z-score),Gal(b1-4)Gal,0.284
same,glycan array binding signal (z-score),[35],0.023
